The record followed here is the RNAGym collection of RNA variant scans (doi:10.1093/nar/gkz1192).

First the molecules themselves.
B1: CPEB3 Ribozyme (parent)
chain: UAACAGGGGGCCACAGCAGAAGCGUUCACGUCGCAGCCCCUGUCAGAUUCUGGUGAAUCUGCGAAUUCUGCUGUAUAUCUC

The source gives no read counts; variants with many changes may rest on few reads.

Variants of B1 are the subject of the data set. Put plainly: self-cleavage, relative activity (ratio to wild type); higher = more cleavage; in vitro, sequencing. In a few lines: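 Relative activity compares each variant's cleaved/total read fraction with that of the unmutated ribozyme. To get these fractions, barcoded CPEB3 ribozyme libraries from rounds of error-prone PCR were transcribed with T7 RNA polymerase for 5 hours at 37°C and then given 15 min of DNase I treatment before EDTA was added. The RNAs were reverse transcribed with template switching and sequenced on Illumina, and DNA sequencing linked barcodes to variants. A minimum of 5 reads applied, and three batches were averaged.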
On to A15U G42A U54A U60C A64C, for which the self-cleavage came out at 0.07. In the case of A15U U25C A28U U31A U67C, the self-cleavage is 0.07.

As to A15G U41A G55U, the self-cleavage amounted to 0.23.

With A15U U26C C44U, the self-cleavage was 0.22. The value for A15G U26C A56G was 0.3. Next, A15U U25A U72A: 0.13; A15U U49C U78C: 0.15; A15U U41C U48C U60C U74A: 0.12. The value for G16A U41C A45C U49C was 0.07. As to A15G U41A U49C, the self-cleavage is 0.28.

Consider A15U U31A A45U U54A U74A U78C, for which the self-cleavage turned out to be 0.25. Next, A15U A35U U43C: 0.22.

A15U A28G A56G: the self-cleavage is 0.17.

As to A15U U49C U67C, the self-cleavage is 0.13. The value for G16U A18U A65G U66C U69A was 0.07; that for A15U U51C A57G U78C was 0.39; that for A15U A20U A56U was 0.05. Next, A15U U31C G46A U69A: 0.05.

In the case of A15U C17A U41C U51A A56G, the self-cleavage amounted to 0.11. On to G16C A28U U54A, for which the self-cleavage came out at 0.11.

G16C U51G G70A C81G: the self-cleavage came to 0.11. A15U A20G A56G U67C U80C: the self-cleavage was found to be 0.77.

For the variant A15U A20G A28G U66G C71A, the self-cleavage was found to be 0.09.

Take A15U A18G A65G: the self-cleavage was 0.1. Next, A15U A21C U25C C40A C50U A56G: 0.19; A15U A20G A56G U67C A75C U80C: 0.78; G16C U25C U51C U69C: 0.12. As for A15G U41A U69A, the self-cleavage was determined as 0.16. Next, A15G U31A G52A A56G: 0.87; G16C A28G C29A A45U: 0.22; A15U A28U C40A G52A: 0.19.

For A15G U41A U67A, the self-cleavage was determined as 0.16.

Turning to A15U U41A U43C U48C, the self-cleavage is 0.38.

With A15G U26C C32U U60A, the self-cleavage was 0.2.

For the variant G16A A35U A57U G70A, the self-cleavage was found to be 0.17. Next, A15G U26C G30A U69A C81A: 0.26; A15G U41A U66C: 0.08. The value for A15U U49G G63A was 0.12; that for G16C C39A U41C was 0.42. In the case of G16A U26A A45U U58C G63A, the self-cleavage came out at 0.12. The value for A15G U31C U48C G70A was 0.04; that for A15U U25A U51C was 0.14. The value for A15G U26C A28U G33C U60C was 0.04.

On to A15U A35U U78A, for which the self-cleavage was 0.18. Next, G16C A18U A64G U72C: 0.24; G16C U41C U80C: 0.51; A15G U41A U60A: 0.27.

Regarding A15U A18G A64G, the self-cleavage is 0.13. Next, A15U A47G A56U U67C A75G: 0.1.

Take A15G U67C C68U: the self-cleavage was determined as 0.47.

Regarding A15U U26C U31C A35G G46U U80A, the self-cleavage was 0.08. Next, A15U A28G G55U: 0.18; A15U C34U A56G U58A: 0.12; G16A U31C A45G: 0.17. Next, A15U G52U A75U U80C: 1.14. The value for A15G U43C A57G was 0.24; that for A15U U25C U26C A28G A64C was 0.21.

A15U U25C U26G A35U A45G U66C G73U: the self-cleavage is 0.07.

Consider A15U A45U U48C A56G, for which the self-cleavage turned out to be 0.2. In the case of G16A G19A U31A U60A G61U, the self-cleavage is 0.06. Next, A15G U49G G55U: 0.22. The value for A15U U54G U74C was 0.98; that for A15G U26C C44A U60G was 0.05. Next, A15U U26A C34G: 0.23. For A15U A20G A45U U80A, the self-cleavage amounted to 0.37.

As for A15U A18G U58C A75C, the self-cleavage is 0.28. Consider A15U A21G A45G U76A, for which the self-cleavage came out at 0.15. The value for G16C G24U G52C U60A was 0.3.

Regarding A15U A28C A65G U67C U80C, the self-cleavage stood at 0.14.

For the variant A15G U43A U80C, the self-cleavage came out at 1.1. The value for A15G U41A U60C U72C was 0.11; that for G16C U25A G46U U49C was 0.13. Next, A15U A47G U66C G73U: 0.41; A15U A18U A20C U26C: 0.29; A15U C29U U78C: 0.38. Next, A15U U26A U67C: 0.15; A15G U54C A56G: 0.54; A15U A21U C34U U41C A57G C62U: 0.05. Take G16A U26C A64G: the self-cleavage amounted to 0.22. The value for A15U U41A U49A A57G U66C was 0.05; that for A15U G30U G73C was 0.11. As for G16A A20U A28U A65G U80A, the self-cleavage was 0.11. Next, G16C A57G U74A: 0.27.
